Test results: PMC11995724, “Antibiotic target discovery by integrated phenotypic and activity-based profiling of electrophilic fragments” (Cell chemical biology, 2025)
Screen size: about 3,200 compounds; about 110 (3.4%) showed an effect of 50% or more. Some of the results follow.

Each compound was assayed on T1, V. cholerae SAD30. Details: relative growth, OD600, LB; 25 µM; inhibitor.
T1 construct: SAD30
Set-up: species or system S. aureus MSSA476 (TSB) or V. cholerae SAD30 (LB); 384-well bacterial growth screen at 25 uM, OD600 relative to DMSO control

Compound	% of control remaining
C=CC(=O)N1CCOC(c2ccc(F)c(C)c2)C1 (stereo not drawn) [3-A09, 1-[2-(4-fluoro-3-methylphenyl)morpholin-4-yl]prop-2-en-1-one]	114.674%
Cc1c(C#N)c(NC(=O)CCl)n(C2CCCCC2)c1C [4-N18, 2-chloro-N-(3-cyano-1-cyclohexyl-4,5-dimethyl-1H-pyrrol-2-yl)acetamide]	106.276%
C=CC(=O)N(CC)CC(=O)N1CCn2c(nc(C)c2C)C1 [2-B18, N-(2-{2,3-dimethyl-5H,6H,7H,8H-imidazo[1,2-a]pyrazin-7-yl}-2-oxoethyl)-N-ethylprop-2-enamide]	95.4453%
O=C(CCl)NC1CCN(C(=O)c2ccccc2)C1 (stereo not drawn) [7-P06, N-(1-benzoylpyrrolidin-3-yl)-2-chloroacetamide]	95.1594%
COc1ccc(CC2CCN2C(=O)C(C)Cl)cc1 (stereo not drawn) [5-O22, 2-chloro-1-{2-[(4-methoxyphenyl)methyl]azetidin-1-yl}propan-1-one]	97.0054%
CN1C=CC(=C(C#N)C(=O)CCl)C=C1 [10-G21, 4-chloro-2-(1-methyl-1,4-dihydropyridin-4-ylidene)-3-oxobutanenitrile]	95.8504%
C=CC(=O)NCCC(=O)N1CCOC(c2nc(C)cs2)C1 (stereo not drawn) [3-K04, N-{3-[2-(4-methyl-1,3-thiazol-2-yl)morpholin-4-yl]-3-oxopropyl}prop-2-enamide]	102.852%
C=CC(=O)Nc1ccc(F)c(-n2nnnc2C)c1 [2-K11, N-[4-fluoro-3-(5-methyl-1H-1,2,3,4-tetrazol-1-yl)phenyl]prop-2-enamide]	90.3503%
C=CC(=O)NCC1CCc2nnc(C(C)C)n2C1 (stereo not drawn) [2-J03, N-{[3-(propan-2-yl)-5H,6H,7H,8H-[1,2,4]triazolo[4,3-a]pyridin-6-yl]methyl}prop-2-enamide]	105.944%
C=CC(=O)N1CCOC(Cn2nc(C)cc2C)C1 (stereo not drawn) [3-C13, 1-{2-[(3,5-dimethyl-1H-pyrazol-1-yl)methyl]morpholin-4-yl}prop-2-en-1-one]	99.5001%
CC(NC(=O)CCl)C(=O)N1CCCCC1C (stereo not drawn) [5-M06, 2-chloro-N-[1-(2-methylpiperidin-1-yl)-1-oxopropan-2-yl]acetamide]	96.6691%
C=CC(=O)N1CCC(n2ncc3ccccc32)CC1 [1-K22, 1-[4-(1H-indazol-1-yl)piperidin-1-yl]prop-2-en-1-one]	95.6652%
N#CC(=Cc1ccccc1Cl)C(=O)NCc1ccccc1 [9-F13, N-benzyl-3-(2-chlorophenyl)-2-cyanoprop-2-enamide]	84.3644%
N#CC(=Cc1ccc2c(c1)OCCO2)C(=O)NC1CCCCC1 [9-J19, 2-cyano-N-cyclohexyl-3-(2,3-dihydro-1,4-benzodioxin-6-yl)prop-2-enamide]	91.8423%
O=C(CCl)NC1CCCc2cn(C3CCCC3)nc21 (stereo not drawn) [5-O09, 2-chloro-N-(2-cyclopentyl-4,5,6,7-tetrahydro-2H-indazol-7-yl)acetamide]	101.713%
C=CC(=O)N1CCC(C(=O)NCc2ccc(OC)cn2)CC1 [3-O19, N-[(5-methoxypyridin-2-yl)methyl]-1-(prop-2-enoyl)piperidine-4-carboxamide]	106.558%
O=C(O)C(c1ccccc1)N1C(=O)C=CC1=O (stereo not drawn) [10-E21, 2-(2,5-dioxo-2,5-dihydro-1H-pyrrol-1-yl)-2-phenylacetic acid]	103.487%
CC(Cl)C(=O)NCc1ncnn1C(C)C (stereo not drawn) [5-P15, 2-chloro-N-{[1-(propan-2-yl)-1H-1,2,4-triazol-5-yl]methyl}propanamide]	104.739%
CC(Cl)C(=O)NC(C)(C)c1cccc(Cl)c1F (stereo not drawn) [7-E15, 2-chloro-N-[2-(3-chloro-2-fluorophenyl)propan-2-yl]propanamide]	65.4221%
C=CC(=O)N1CCC(c2nc(C(=O)O)cs2)CC1 [1-O21, 2-[1-(prop-2-enoyl)piperidin-4-yl]-1,3-thiazole-4-carboxylic acid]	93.2735%
NC(=O)c1csc(C(=O)CCl)c1 [10-L06, 5-(2-chloroacetyl)thiophene-3-carboxamide]	54.549%
CC(Cl)C(=O)N1CCC(Oc2ccc(C3CC3)cn2)C1 (stereo not drawn) [7-A18, 2-chloro-1-{3-[(5-cyclopropylpyridin-2-yl)oxy]pyrrolidin-1-yl}propan-1-one]	73.0877%
CC(Cl)C(=O)N1CC(S(=O)(=O)Nc2ccccc2)C1 (stereo not drawn) [7-G05, 1-(2-chloropropanoyl)-N-phenylazetidine-3-sulfonamide]	85.9078%

Compound	% of control remaining
Cc1cccc(NC(=O)C(C)Cl)c1 (stereo not drawn) [5-P10, 2-chloro-N-(3-methylphenyl)propanamide]	105.075%
Cc1cc(C)n2c(-c3c(Cl)cccc3NC(=O)CCl)nnc2n1 [5-M16, 2-chloro-N-(3-chloro-2-{5,7-dimethyl-[1,2,4]triazolo[4,3-a]pyrimidin-3-yl}phenyl)acetamide]	101.376%
C=CC(=O)NCc1nc(-c2ccc(F)cc2)n[nH]1 [3-D04, N-{[3-(4-fluorophenyl)-1H-1,2,4-triazol-5-yl]methyl}prop-2-enamide]	110.086%
Cc1ccc(Oc2ccc(Cl)cc2NC(=O)CCl)cc1 [4-A21, 2-chloro-N-[5-chloro-2-(4-methylphenoxy)phenyl]acetamide]	92.1285%
C=CC(=O)N1CCCCC1c1nc2ccccc2o1 (stereo not drawn) [3-O20, 1-[2-(1,3-benzoxazol-2-yl)piperidin-1-yl]prop-2-en-1-one]	99.853%
CC(Cl)C(=O)NCC1=CCCOC1 (stereo not drawn) [7-I05, 2-chloro-N-[(5,6-dihydro-2H-pyran-3-yl)methyl]propanamide]	83.5288%
N#CC(=Cc1ccc(N2CCCCCC2)cc1)C(=O)NCC1CCCO1 (stereo not drawn) [9-H15, 3-[4-(azepan-1-yl)phenyl]-2-cyano-N-[(oxolan-2-yl)methyl]prop-2-enamide]	57.7158%
N#CC(=Cc1cccc(O)c1)C(=O)Nc1ccccc1C(F)(F)F [9-A20, 2-cyano-3-(3-hydroxyphenyl)-N-[2-(trifluoromethyl)phenyl]prop-2-enamide]	87.4915%
C=CC(=O)NC1CC2CCC(C1)N2S(C)(=O)=O (stereo not drawn) [2-A18, N-{8-methanesulfonyl-8-azabicyclo[3.2.1]octan-3-yl}prop-2-enamide]	92.975%
CC(Cl)C(=O)NC(c1ccccc1)c1ccccc1 (stereo not drawn) [5-A21, 2-chloro-N-(diphenylmethyl)propanamide]	85.0688%
O=C(CCl)Nc1cc(-n2nnnc2C2CC2)ccc1F [6-E09, 2-chloro-N-[5-(5-cyclopropyl-1H-1,2,3,4-tetrazol-1-yl)-2-fluorophenyl]acetamide]	90.0938%
C=CC(=O)N1CCC(C(=O)NCC2([S+](C)[O-])CCC2)CC1 (stereo not drawn) [2-D18, N-[(1-methanesulfinylcyclobutyl)methyl]-1-(prop-2-enoyl)piperidine-4-carboxamide]	92.203%
C=CCN(Cc1cccs1)C(=O)CCl [5-B06, 2-chloro-N-(prop-2-en-1-yl)-N-[(thiophen-2-yl)methyl]acetamide]	97.1735%
CC1CN(C(=O)C(C#N)=Cc2c(Cl)cccc2Cl)CC(C)O1 (stereo not drawn) [8-O12, 3-(2,6-dichlorophenyl)-2-(2,6-dimethylmorpholine-4-carbonyl)prop-2-enenitrile]	70.4963%
CC(C)C(C)N(Cc1ccns1)C(=O)CCl (stereo not drawn) [5-M12, 2-chloro-N-(3-methylbutan-2-yl)-N-[(1,2-thiazol-5-yl)methyl]acetamide]	91.2893%
CN(c1ccc(C(=O)CCl)cc1)S(C)(=O)=O [10-F19, N-[4-(2-chloroacetyl)phenyl]-N-methylmethanesulfonamide]	14.0269%
COc1ccc(NC(=O)C(C)Cl)cc1Cl (stereo not drawn) [4-I14, 2-chloro-N-(3-chloro-4-methoxyphenyl)propanamide]	91.4384%
C=CC(=O)Nc1cc(NC(=O)C2CC3CCC2CC3)ccc1F (stereo not drawn) [1-C17, N-[4-fluoro-3-(prop-2-enamido)phenyl]bicyclo[2.2.2]octane-2-carboxamide]	73.6921%
CS(=O)(=O)N1CCc2cc(C(=O)CCl)ccc21 [10-B19, 2-chloro-1-(1-methanesulfonyl-2,3-dihydro-1H-indol-5-yl)ethan-1-one]	18.0791%
CC(Cl)C(=O)Nc1ccc(Cl)cc1Cl (stereo not drawn) [4-L17, 2-chloro-N-(2,4-dichlorophenyl)propanamide]	94.1988%
C=CC(=O)N1CCC(C(=O)N2CCCC(c3cnn(C)c3)C2)CC1 (stereo not drawn) [2-N16, 1-{4-[3-(1-methyl-1H-pyrazol-4-yl)piperidine-1-carbonyl]piperidin-1-yl}prop-2-en-1-one]	88.6519%
C=CC(=O)N(CC)CC(=O)N1CCN(c2ccc(C#N)cc2F)CC1 [3-D03, N-{2-[4-(4-cyano-2-fluorophenyl)piperazin-1-yl]-2-oxoethyl}-N-ethylprop-2-enamide]	125.084%
